# Test results reported in the supplement of paper PMC8728848.
# This is one part of the list.
# B1: HPA (Helix pomatia), Q2F1K8 (protein)
# chain: MQAFYSGLLLLCVVAFAAAQRVQSGKIDCGNDAGWAKVPSDDPGRDNTRELAKNITFASPYCRPPVVLLSITQLDVEQSQNLRVIARLYSVSPTGFKASCYTWHNTKVYSMSISWISIENY
# Experiments:
# Test in all cases: glycan array binding signal (z-score within array); higher = stronger binding
# Details in all cases: glycan notation: IUPAC condensed, linker removed
# [1] = target: Gal(a1-3)Gal(b1-4)[Fuc(a1-3)]GlcNAc
# Procedure, shortened: (§1)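 From the Consortium for Functional Glycomics database, 3228 arrays were curated, keeping only those whose protein sequence was available. Binding is given as a within-array Z-score averaged across arrays sharing a protein sequence and across linkers. Negative Z-scores can be read as non-binding.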
# [2] = target: Gal(a1-3)Gal(b1-4)[Fuc(a1-3)]GlcNAc(b1-2)Man(a1-3)[Gal(a1-3)Gal(b1-4)[Fuc(a1-3)]GlcNAc(b1-2)Man(a1-6)]Man(b1-4)GlcNAc(b1-4)GlcNAc
# Procedure, shortened: as §1
# Gal(a1-3)GalNAc = target: Gal(a1-3)GalNAc
# Procedure, shortened: as §1
# [3] = target: Gal(a1-3)[Gal(a1-4)]Gal(b1-4)GlcNAc
# Procedure, shortened: as §1
# [4] = target: Gal(a1-4)Gal(b1-3)GlcNAc(b1-2)Man(a1-3)[Gal(a1-4)Gal(b1-3)GlcNAc(b1-2)Man(a1-6)]Man(b1-4)GlcNAc(b1-4)GlcNAc
# Procedure, shortened: as §1
# Gal(a1-4)Gal(b1-4)Glc = target: Gal(a1-4)Gal(b1-4)Glc
# Procedure, shortened: as §1
# Gal(a1-4)Gal(b1-4)GlcNAc = target: Gal(a1-4)Gal(b1-4)GlcNAc
# Procedure, shortened: as §1
# [5] = target: Gal(a1-4)Gal(b1-4)GlcNAc(b1-2)Man(a1-3)[Gal(a1-4)Gal(b1-4)GlcNAc(b1-2)Man(a1-6)]Man(b1-4)GlcNAc(b1-4)GlcNAc
# Procedure, shortened: as §1
# [6] = target: Gal(a1-4)Gal(b1-4)GlcNAc(b1-3)Gal(b1-4)Glc
# Procedure, shortened: as §1
# Gal(a1-4)GlcNAc = target: Gal(a1-4)GlcNAc
# Procedure, shortened: as §1
# Gal(a1-6)Glc = target: Gal(a1-6)Glc
# Procedure, shortened: as §1
# Gal(b1-2)Gal = target: Gal(b1-2)Gal
# Procedure, shortened: as §1
# Gal(b1-3)Gal = target: Gal(b1-3)Gal
# Procedure, shortened: as §1
# Gal(b1-3)Gal(b1-4)GlcNAc = target: Gal(b1-3)Gal(b1-4)GlcNAc
# Procedure, shortened: as §1
# [7] = target: Gal(b1-3)Gal(b1-4)GlcNAc(b1-2)Man(a1-3)[Gal(b1-3)Gal(b1-4)GlcNAc(b1-2)Man(a1-6)]Man(b1-4)GlcNAc(b1-4)GlcNAc
# Procedure, shortened: as §1
# Gal(b1-3)GalNAc = target: Gal(b1-3)GalNAc
# Procedure, shortened: as §1
# [8] = target: Gal(b1-3)GalNAc(a1-3)[Fuc(a1-2)]Gal(b1-4)Glc
# Procedure, shortened: as §1
# [9] = target: Gal(b1-3)GalNAc(a1-3)[Fuc(a1-2)]Gal(b1-4)GlcNAc
# Procedure, shortened: as §1
# Gal(b1-3)GalNAc(b1-3)Gal = target: Gal(b1-3)GalNAc(b1-3)Gal
# Procedure, shortened: as §1
# [10] = target: Gal(b1-3)GalNAc(b1-3)Gal(a1-4)Gal(b1-4)Glc
# Procedure, shortened: as §1
# [11] = target: Gal(b1-3)GalNAc(b1-4)Gal(b1-4)Glc
# Procedure, shortened: as §1
# [12] = target: Gal(b1-3)GalNAc(b1-4)[Neu5Ac(a2-3)]Gal(b1-4)Glc
# Procedure, shortened: as §1
# Gal(b1-3)GlcNAc = target: Gal(b1-3)GlcNAc
# Procedure, shortened: as §1
# [13] = target: Gal(b1-3)GlcNAc(a1-3)Gal(b1-4)GlcNAc
# Procedure, shortened: as §1
# [14] = target: Gal(b1-3)GlcNAc(a1-6)Gal(b1-4)GlcNAc
# Procedure, shortened: as §1
# Gal(b1-3)GlcNAc(b1-2)Man = target: Gal(b1-3)GlcNAc(b1-2)Man
# Procedure, shortened: as §1
# [15] = target: Gal(b1-3)GlcNAc(b1-2)Man(a1-3)[Gal(b1-3)GlcNAc(b1-2)Man(a1-6)]Man(b1-4)GlcNAc(b1-4)GlcNAc
# Procedure, shortened: as §1
# [16] = target: Gal(b1-3)GlcNAc(b1-2)Man(a1-3)[Gal(b1-3)GlcNAc(b1-2)Man(a1-6)]Man(b1-4)GlcNAc(b1-4)[Fuc(a1-6)]GlcNAc
# Procedure, shortened: as §1
# [17] = target: Gal(b1-3)GlcNAc(b1-2)Man(a1-3)[GlcNAc(b1-4)][Gal(b1-3)GlcNAc(b1-2)Man(a1-6)]Man(b1-4)GlcNAc(b1-4)GlcNAc
# Procedure, shortened: as §1
# [18] = target: Gal(b1-3)GlcNAc(b1-2)[Gal(b1-3)GlcNAc(b1-6)]Man(a1-6)[Gal(b1-3)GlcNAc(b1-2)Man(a1-3)]Man(b1-4)GlcNAc(b1-4)GlcNAc
# Procedure, shortened: as §1
# [19] = target: Gal(b1-3)GlcNAc(b1-3)Gal(b1-3)GlcNAc
# Procedure, shortened: as §1
# [20] = target: Gal(b1-3)GlcNAc(b1-3)Gal(b1-4)Glc
# Procedure, shortened: as §1
# [21] = target: Gal(b1-3)GlcNAc(b1-3)Gal(b1-4)GlcNAc
# Procedure, shortened: as §1
# [22] = target: Gal(b1-3)GlcNAc(b1-3)Gal(b1-4)GlcNAc(b1-2)Man(a1-3)[Gal(b1-3)GlcNAc(b1-3)Gal(b1-4)GlcNAc(b1-2)Man(a1-6)]Man(b1-4)GlcNAc(b1-4)GlcNAc
# Procedure, shortened: as §1
# [23] = target: Gal(b1-3)GlcNAc(b1-3)Gal(b1-4)GlcNAc(b1-2)[Gal(b1-3)GlcNAc(b1-3)Gal(b1-4)GlcNAc(b1-6)]Man(a1-6)[Gal(b1-3)GlcNAc(b1-3)Gal(b1-4)GlcNAc(b1-2)Man(a1-3)]Man(b1-4)GlcNAc(b1-4)[Fuc(a1-6)]GlcNAc
# Procedure, shortened: as §1
# [24] = target: Gal(b1-3)GlcNAc(b1-3)Gal(b1-4)GlcNAc(b1-3)Gal(b1-4)GlcNAc(b1-2)[Gal(b1-3)GlcNAc(b1-3)Gal(b1-4)GlcNAc(b1-3)Gal(b1-4)GlcNAc(b1-6)]Man(a1-6)[Gal(b1-3)GlcNAc(b1-3)Gal(b1-4)GlcNAc(b1-3)Gal(b1-4)GlcNAc(b1-2)Man(a1-3)]Man(b1-4)GlcNAc(b1-4)[Fuc(a1-6)]GlcNAc
# Procedure, shortened: as §1
# [25] = target: Gal(b1-3)GlcNAc(b1-3)Gal(b1-4)GlcNAc(b1-6)[Gal(b1-3)GlcNAc(b1-3)]Gal(b1-4)Glc
# Procedure, shortened: as §1
# [26] = target: Gal(b1-3)GlcNAc(b1-3)Gal(b1-4)[Fuc(a1-3)]GlcNAc
# Procedure, shortened: as §1
# [27] = target: Gal(b1-3)GlcNAc(b1-3)Gal(b1-4)[Fuc(a1-3)]GlcNAc(b1-6)[Gal(b1-3)GlcNAc(b1-3)]Gal(b1-4)Glc
# Procedure, shortened: as §1
# [28] = target: Gal(b1-3)GlcNAc(b1-3)GalNAc
# Procedure, shortened: as §1
# [29] = target: Gal(b1-3)GlcNAc(b1-6)Gal(b1-4)GlcNAc
# Procedure, shortened: as §1
# [30] = target: Gal(b1-3)GlcNAc(b1-6)GalNAc
# Procedure, shortened: as §1
# [31] = target: Gal(b1-3)GlcNAc(b1-6)[Gal(b1-3)]GalNAc
# Procedure, shortened: as §1
# Gal(b1-3)GlcNAc6S = target: Gal(b1-3)GlcNAc6S
# Procedure, shortened: as §1
# [32] = target: Gal(b1-3)[Fuc(a1-4)]GlcNAc
# Procedure, shortened: as §1
binder,measurement,setting,value
B1,glycan array binding signal (z-score),[1],-0.235
same,glycan array binding signal (z-score),[2],0.037
same,glycan array binding signal (z-score),Gal(a1-3)GalNAc,-0.188
same,glycan array binding signal (z-score),[3],-0.147
same,glycan array binding signal (z-score),[4],-0.186
same,glycan array binding signal (z-score),Gal(a1-4)Gal(b1-4)Glc,0.015
same,glycan array binding signal (z-score),Gal(a1-4)Gal(b1-4)GlcNAc,-0.114
same,glycan array binding signal (z-score),[5],-0.101
same,glycan array binding signal (z-score),[6],-0.222
same,glycan array binding signal (z-score),Gal(a1-4)GlcNAc,-0.263
same,glycan array binding signal (z-score),Gal(a1-6)Glc,-0.127
same,glycan array binding signal (z-score),Gal(b1-2)Gal,-0.074
same,glycan array binding signal (z-score),Gal(b1-3)Gal,-0.159
same,glycan array binding signal (z-score),Gal(b1-3)Gal(b1-4)GlcNAc,-0.291
same,glycan array binding signal (z-score),[7],-1.16
same,glycan array binding signal (z-score),Gal(b1-3)GalNAc,0.332
same,glycan array binding signal (z-score),[8],0.102
same,glycan array binding signal (z-score),[9],-0.604
same,glycan array binding signal (z-score),Gal(b1-3)GalNAc(b1-3)Gal,-0.375
same,glycan array binding signal (z-score),[10],-0.093
same,glycan array binding signal (z-score),[11],-0.188
same,glycan array binding signal (z-score),[12],-0.291
same,glycan array binding signal (z-score),Gal(b1-3)GlcNAc,-0.166
same,glycan array binding signal (z-score),[13],-0.453
same,glycan array binding signal (z-score),[14],-0.214
same,glycan array binding signal (z-score),Gal(b1-3)GlcNAc(b1-2)Man,-0.119
same,glycan array binding signal (z-score),[15],0.022
same,glycan array binding signal (z-score),[16],-0.15
same,glycan array binding signal (z-score),[17],-0.092
same,glycan array binding signal (z-score),[18],-0.35
same,glycan array binding signal (z-score),[19],-0.292
same,glycan array binding signal (z-score),[20],-0.217
same,glycan array binding signal (z-score),[21],-0.227
same,glycan array binding signal (z-score),[22],-0.021
same,glycan array binding signal (z-score),[23],-0.013
same,glycan array binding signal (z-score),[24],0.092
same,glycan array binding signal (z-score),[25],-0.34
same,glycan array binding signal (z-score),[26],-0.245
same,glycan array binding signal (z-score),[27],-0.222
same,glycan array binding signal (z-score),[28],-0.051
same,glycan array binding signal (z-score),[29],-0.303
same,glycan array binding signal (z-score),[30],-0.329
same,glycan array binding signal (z-score),[31],-0.205
same,glycan array binding signal (z-score),Gal(b1-3)GlcNAc6S,-0.491
same,glycan array binding signal (z-score),[32],-0.071
